# According to the supplement of paper PMC2702839:
# Counter-ions that a name gives are not always drawn. The list shows a part of the results.
# Tested on: Schistosoma mansoni schistosomula
# Experiment: phenotypic hit in primary schistosomula screen (any phenotype vs DMSO control) (binary (1 = hit, 0 = no phenotype)); higher = active (phenotype induced)
# Conditions: 1 µM; time (d): 7
row,SMILES,phenotypic hit
1,COc1ccc2c(C)cc(=O)oc2c1 [hymecromone methyl ether],inactive: 0
2,O=C1OC(c2ccc(O)cc2)(c2ccc(O)cc2)c2ccccc21 [phenolphthalein],inactive: 0
3,COc1cc(OC)c2c(=O)cc(-c3ccccc3)oc2c1 [chrysin dimethyl ether],inactive: 0
4,CC(C)NCC(O)COc1cccc2ccccc12 (racemic) [(±)-Propranolol hydrochloride],inactive: 0
5,O=c1cc(-c2ccc(O)cc2)oc2cc(O[C@@H]3O[C@H](CO)[C@@H](O)[C@H](O)[C@H]3O[C@@H]3OC[C@](O)(CO)[C@H]3O)cc(O)c12 [apiin],inactive: 0
6,CCN(CC)CCCC(C)Nc1ccnc2cc(Cl)ccc12 (stereo not given) [Chloroquine phosphate],inactive: 0
7,"COc1ccc2c(c1)[C@@]1(C)CCC(=O)C[C@H]1CC2 [5beta-12-methoxy-4,4-bisnor-8,11,13-podocarpatrien-3-one]",inactive: 0
8,"CCCCCC1C(=O)CCC1CC(=O)OC (stereo not given) [dihydrojasmonic acid, methyl ester]",inactive: 0
9,CC(C)c1nc(N(C)S(C)(=O)=O)nc(-c2ccc(F)cc2)c1/C=C/[C@@H](O)C[C@@H](O)CC(=O)O [rosuvastatin],inactive: 0
10,C=C(CC)C(=O)c1ccc(OCC(=O)O)c(Cl)c1Cl [ethacrynic acid],inactive: 0
11,Nc1ccc(S(=O)(=O)NC(=O)c2ccccc2)cc1 [sulfabenzamide],inactive: 0
12,Oc1ccc2c(c1)OC[C@]1(O)Cc3cc(O)c(O)cc3[C@H]21 [brazilin],inactive: 0
13,C=C(C)[C@@H]1CC[C@]2(C(=O)O)CC[C@]3(C)[C@H](CC[C@@H]4[C@@]5(C)CC[C@H](O)C(C)(C)[C@@H]5CC[C@]43C)[C@@H]12 [betulinic acid],inactive: 0
14,C1N2CN3CN1CN(C2)C3 [methenamine],inactive: 0
15,O=C(O)C1=C[C@@H](O)[C@@H](O)[C@H](O)C1 [shikimic acid],inactive: 0
16,"O=C(/C=C(\O)c1ccccc1)c1ccccc1O [2',beta-dihydroxychalcone]",inactive: 0
17,c1ccc2c(c1)CCCC2C1=NCCN1 (stereo not given) [tetrahydrozoline hydrochloride],inactive: 0
18,CCC(=O)O[C@H]1CC[C@H]2[C@@H]3CCc4cc(O)ccc4[C@H]3CC[C@]12C [estradiol propionate],inactive: 0
19,Oc1c(Br)cc(Br)c2cccnc12 [broxyquinoline],inactive: 0
20,COc1ccc(-c2coc3cc(O)ccc3c2=O)cc1 [formononetin],inactive: 0
21,NC(=O)c1ccccc1O [salicylamide],inactive: 0
22,"COc1cc(O)c2c(=O)cc(-c3ccc(OC)c(-c4c(O)cc(O)c5c(=O)cc(-c6ccc(O)cc6)oc45)c3)oc2c1 [ginkgetin, k salt]",inactive: 0
23,CCOC(=O)N1CCC(=C2c3ccc(Cl)cc3CCc3cccnc32)CC1 [loratadine],inactive: 0
24,COC(=O)[C@H](c1ccccc1Cl)N1CCc2sccc2C1 [clopidogrel sulfate],inactive: 0
25,C[C@]12CCC(=O)C=C1CC[C@@H]1[C@@H]2C(=O)C[C@@]2(C)[C@H]1CC[C@]2(O)C(=O)CO [cortisone],inactive: 0

row,SMILES,phenotypic hit
1,"CC(=O)O[C@H]1CC[C@]2(C)C(C[C@H](OC(C)=O)[C@]3(C)C4=CC(=O)OC(c5ccoc5)[C@@]4(C)CCC23)C1(C)C (stereo partly drawn) [3beta,7beta-diacetoxydeoxodeacetoxydeoxydihydrogedunin]",inactive: 0
2,CN(C)[C@@H]1C(O)=C(C(N)=O)C(=O)[C@@]2(O)C(O)=C3C(=O)c4c(O)cccc4[C@@](C)(O)[C@H]3C[C@@H]12 [tetracycline hydrochloride],inactive: 0
3,O=C(O)C1CCCNC1 (racemic) [(±)-Nipecotic acid],inactive: 0
4,Cc1ccc(N(CC2=NCCN2)c2cccc(O)c2)cc1 [Phentolamine mesylate],inactive: 0
5,CCc1ccc(CCOc2ccc(CC3SC(=O)NC3=O)cc2)nc1 (stereo not given) [pioglitazone hydrochloride],inactive: 0
6,CC(C)NCC(O)c1ccc(O)c(O)c1 (racemic) [(±)-Isoproterenol hydrochloride],inactive: 0
7,CO[C@H]1/C=C/O[C@@]2(C)Oc3c(C)c(O)c4c(O)c(c(/C=N/N5CCN(C)CC5)c(O)c4c3C2=O)NC(=O)/C(C)=C\C=C\[C@H](C)[C@H](O)[C@@H](C)[C@@H](O)[C@@H](C)[C@H](OC(C)=O)[C@@H]1C [rifampin],inactive: 0
8,CC(=O)C1=C(O)C=C2Oc3c(C(C)=O)c(O)c(C)c(O)c3C2(C)C1=O (stereo in doubt) [usnic acid],inactive: 0
9,C[C@@H]1CC[C@H]2C(C)(C)[C@H]3C[C@@]12CC[C@@]3(C)O [cedrol],inactive: 0
10,CCCSc1ccc2[nH]c(NC(=O)OC)nc2c1 [albendazole],inactive: 0
11,Cc1c(Cl)cccc1Nc1ccccc1C(=O)O [tolfenamic acid],inactive: 0
12,"CC(=O)OCC1(C)CCC2(C)CCC3(C)C4=CCc5c(cc(OC(C)=O)c(OC(C)=O)c5C)C4(C)CCC3(C)C2C1 (stereo not given) [2,3,29-triacetoxy-24-nor-1,3,5,7-friedelatetraene]",active: 1
13,CC[C@H]1OC(=O)[C@H](C)[C@@H](O[C@H]2C[C@@](C)(OC)[C@@H](O)[C@H](C)O2)[C@H](C)[C@@H](O[C@@H]2O[C@H](C)C[C@H](N(C)C)[C@H]2O)[C@](C)(O)C[C@@H](C)C(=O)[C@H](C)[C@@H](O)[C@]1(C)O [erythromycin],inactive: 0
14,"COc1cc(/C=C/C=O)cc(OC)c1OC [3,4,5-trimethoxycinnamaldehyde]",inactive: 0
15,CC1=C(/C=C/C(C)=C/C=C/C(C)=C/C=C/C=C(C)/C=C/C=C(C)/C=C/C2=C(C)CCCC2(C)C)C(C)(C)CCC1 [beta-carotene],inactive: 0
16,CC1=CC(=O)[C@H]2C(C)(C)CCC[C@]2(C)[C@@]1(O)CCc1ccoc1 [solidagenone],inactive: 0
17,CC(C)(Oc1ccc(CCNC(=O)c2ccc(Cl)cc2)cc1)C(=O)O [bezafibrate],inactive: 0
18,OCCN1CCN(CCCN2c3ccccc3Sc3ccc(C(F)(F)F)cc32)CC1 [Fluphenazine dihydrochloride],inactive: 0
19,c1ccc(CC2=NCCN2)cc1 [tolazoline hydrochloride],inactive: 0
20,NCCCCC(=O)O [5-Aminovaleric acid hydrochloride],inactive: 0
21,COc1c(O)cc2occ(-c3ccc(O)cc3)c(=O)c2c1O [tectorigenin],inactive: 0
22,CC1(C)C=Cc2c(c3c(c4c(=O)c(-c5ccc(O)cc5)coc24)OC(C)(C)CC3)O1 [isoosajin],inactive: 0
23,O=C1c2ccccc2C(=O)C1c1ccccc1 [phenindione],inactive: 0
24,CC(C)[C@@H](C)/C=C/[C@@H](C)[C@H]1CC[C@H]2C3=CC=C4C[C@@H](O)CC[C@]4(C)[C@H]3CC[C@]12C [ergosterol],inactive: 0
25,Clc1ccc2c(c1)C(N1CCNCC1)=Nc1ccccc1O2 [Amoxapine],inactive: 0
